Measured values from the supplement of paper PMC12217912.
The list shows a part of the results. The full chains were built here from the parent and the listed change. Inactive controls read about 0.05.

B1: TEV protease; numbered along this chain (parent)
chain: MGESLFKGPRDYNPISSSICHLTNESDGHTTSLYGIGFGPFIITNKHLFRRNNGTLVVQSLHGVFKVKDTTTLQQHLVDGRDMIIIRMPKDFPPFPQKLKFREPQREERICLVTTNFQTKSMSSMVSDTSCTFPSGDGIFWKHWIQTKDGQCGSPLVSTRDGFIVGIHSASNFTNTNNYFTSVPKNFMELLTNQEAQQWVSGWRLNADSVLWGGHKVFMVKPEEPFQPVKEATQL

Variants of: B1
Assay: raw area under fraction-flipped curve 0-4 h after induction (AUC4h, not background-subtracted), DNA-recorder readout of cleavage of the substrate (dimensionless); higher = more cleavage of the substrate by the protease variant
Conditions: temperature: 34 °C; time window: 0-4 h after rhamnose induction
Description: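 In vivo DNA recorder in E. coli TOP10(DE3) ΔrhaA at 34 °C. Each TEVp single-site mutant (parent TEVp 0) is paired with a single-site variant of the 7-mer TEVs (canonical ENLYFQ|S). The substrate sits between flexible linkers in a Bxb1-sfGFP-TEVs-SsrA fusion, so cleavage stabilises Bxb1 and speeds flipping of a recombination array, read by NGS. The value is the raw area under the fraction-flipped curve over 0-4 h after rhamnose induction (AUC4h), with ≥20 reads per time point. It is not background-subtracted; inactive controls average about 0.047.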
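Also: Bxb1 expression induced with 0.2% (w/v) L-rhamnose at OD600 near 0.5, cultures sampled hourly, flipped fraction per protease–substrate barcode pair counted by paired-end Illumina sequencing.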

Row | Variant | area with substrate ENLCFQS | area with substrate ENLDFQS | area with substrate ENLEFQS | area with substrate ENLFFQS | area with substrate ENLGFQS | area with substrate ENLIFQS | area with substrate ENLKFQS | area with substrate ENLLFQS | area with substrate ENLNFQS | area with substrate ENLPFQS | area with substrate ENLSFQS | area with substrate ENLVFQS | area with substrate ENLHFQS | area with substrate ENLQFQS | area with substrate ENLRFQS | area with substrate ENLWFQS | area with substrate ENLMFQS | area with substrate ENLTFQS
1 | S124F | 0.0689 | 0.0592 | 0.0648 | 0.0637 | 0.071 | 0.0754 | 0.0607 | 0.0596 | 0.0349 | 0.0486 | 0.0514 | 0.0816 | – | – | – | – | – | –
2 | M125E | 0.0663 | 0.0966 | 0.0648 | 0.0827 | – | 0.0402 | 0.0674 | 0.0692 | 0.0724 | 0.0617 | 0.062 | 0.0726 | 0.0517 | 0.0678 | 0.0788 | 0.0693 | – | –
3 | S127M | 0.0706 | 0.0494 | 0.0608 | 0.0895 | 0.0766 | 0.0782 | 0.0923 | 0.068 | 0.0614 | 0.0716 | 0.0599 | 0.105 | 0.0611 | – | 0.0995 | 0.0707 | 0.0705 | –
4 | T129C | 0.0302 | 0.0623 | – | 0.0692 | 0.0473 | 0.0697 | 0.0757 | – | 0.0537 | 0.0523 | 0.0679 | – | 0.0628 | 0.0639 | – | – | – | –
5 | T129F | 0.0636 | – | – | – | – | 0.078 | 0.0704 | – | 0.0616 | 0.0662 | 0.0625 | – | – | – | 0.0748 | – | – | –
6 | S130W | 0.0604 | 0.0587 | 0.0451 | 0.0705 | 0.0699 | 0.0734 | 0.0626 | 0.0529 | – | 0.0586 | 0.065 | 0.0953 | 0.0675 | 0.0698 | 0.0629 | – | – | –
7 | T132Q | 0.0704 | 0.0478 | – | 0.0721 | – | 0.0826 | 0.0748 | 0.0793 | 0.0659 | – | 0.0408 | – | 0.0644 | – | 0.0628 | 0.0633 | 0.0998 | –
8 | S135P | 0.0637 | 0.0587 | – | 0.0642 | – | 0.0748 | – | 0.0545 | 0.0742 | 0.0666 | 0.0608 | – | 0.0711 | 0.05 | 0.0549 | 0.0615 | 0.0632 | –
9 | D137Y | 0.0698 | 0.0544 | 0.0438 | 0.0833 | – | 0.0597 | 0.0752 | – | 0.0495 | 0.0646 | 0.0699 | 0.0702 | – | – | 0.0711 | 0.0751 | – | –
10 | W141R | 0.0634 | 0.0665 | 0.0538 | 0.0578 | 0.0703 | – | – | 0.0444 | 0.0644 | 0.0545 | 0.0565 | 0.0475 | – | 0.0446 | 0.0417 | 0.0453 | – | –
11 | K142D | 0.0678 | 0.0627 | 0.0647 | 0.0644 | – | – | 0.0626 | 0.0588 | – | 0.0599 | – | – | – | – | – | – | – | 0.0569
12 | T147P | 0.0651 | 0.0743 | 0.0703 | 0.0923 | 0.06 | 0.0615 | 0.0645 | 0.0587 | 0.0633 | 0.0646 | – | 0.0636 | 0.0728 | 0.0638 | 0.0633 | 0.0536 | 0.0596 | –
13 | Q151G | 0.0711 | 0.0589 | – | 0.0724 | – | 0.0524 | 0.056 | 0.071 | – | 0.0699 | 0.0506 | 0.0725 | – | – | – | 0.0626 | 0.0561 | –
14 | S154M | 0.0537 | 0.0658 | – | 0.0755 | 0.0668 | 0.0713 | 0.0588 | – | 0.0589 | – | 0.0577 | – | 0.0577 | – | – | 0.0531 | – | –
